PubChem BioAssay AID2675 (National Center for Advancing Translational Sciences (NCATS), 2010)
Among all 280,000 compounds or so, about 100 (0.036%) were called active. This list was built around the results that the source calls inconclusive (neither active nor inactive); the mix of calls is not that of the screen. The call rests on the fitted dose curve; in most records, active means well fitted inhibition curve with a large enough effect in the signal ratio, with a control signal flat (not every such curve was filed as active); inconclusive means small, poorly fitted or top-dose-only effect, or effect the other way, or a change in a side signal; inactive means no such curve, though single readings can be large or run the other way; the % refers to the signal ratio. A potency beside an inconclusive call is a rough fit, not a confirmed value. “Side channel” marks fits to a control or component signal instead of the main read-out.

Biological target: Muscleblind-like protein 1 (Homo sapiens) (UniProt Q9NR56)
Test: qHTS Assay for Inhibitors of MBNL1-poly(CUG) RNA binding
Conditions: TR-FRET MBNL1-His/biotin-(CUG)12 binding, 665/545 ratio; series mostly up to 57.5 µM
In short: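 MBNL1-His + Biotin-(CUG)12, cpd titration 92 nM–58 uM; Tb anti-His Ab 0.055 ng/ul, SA-XL665 5 nM (final); 60 min RT; ratiometric 665/545 nm, Ex 340 nm; normalized to buffer and full-complex controls.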
Potency means the concentration at half of the fitted maximal effect; tags describe the fitted curve by direction and shape or compound fluorescence and quenching.

Sequence of UniProt Q9NR56 (Q9NR56 whole entry, looked up): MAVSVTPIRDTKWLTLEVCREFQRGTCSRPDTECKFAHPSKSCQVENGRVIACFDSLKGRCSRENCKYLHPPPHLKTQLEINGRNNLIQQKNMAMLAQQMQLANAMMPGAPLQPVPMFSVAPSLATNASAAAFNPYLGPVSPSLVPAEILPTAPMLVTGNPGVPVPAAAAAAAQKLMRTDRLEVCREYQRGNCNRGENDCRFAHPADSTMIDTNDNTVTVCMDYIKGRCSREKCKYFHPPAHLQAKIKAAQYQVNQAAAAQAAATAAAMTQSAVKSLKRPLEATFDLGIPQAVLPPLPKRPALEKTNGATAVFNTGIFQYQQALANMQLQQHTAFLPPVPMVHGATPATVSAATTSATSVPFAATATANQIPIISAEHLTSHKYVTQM

| SMILES | Potency |
| --- | --- |
| O=C(Cc1nc2ccccc2s1)c1ccc(O)cc1O | inconclusive: 39.8 µM [quencher, side channel, single point] |
| CCOC(=O)N=Nc1c(O)n(C)c2ccccc12 | inconclusive: 3.55 µM [quencher, side channel, partial curve] |
| CC(C)N1CCc2c(sc(NC(=O)c3ccc(S(=O)(=O)N(C)CC4CCCO4)cc3)c2C(N)=O)C1 (centres undefined) | inconclusive: 22.4 µM [quencher, side channel, partial curve, poor fit] |
| Cn1c2ccccc2c(=O)c2cc(C#CC3(O)CCCCC3)ccc21 | inactive |
| CC(C)(C)c1ccc(NC(=O)N2CCCN(c3ccc([N+](=O)[O-])cn3)CC2)cc1 | inconclusive: 25.1 µM [quencher, side channel, partial curve] |
| CC(NC(=O)CSc1nc2sc3c(c2c(=O)n1-c1ccccc1)CCCC3)c1ccccc1 (centres undefined) | inconclusive: 5.01 µM [quencher, side channel, single point] |
| O=C(NCCCn1ccnc1)/C(=C/c1ccc(Cl)cc1)NC(=O)c1ccccc1 | inactive |
| FC(F)(F)c1cc(-c2ccco2)nc(-n2cnc3ccccc32)n1 | inactive |
| N#Cc1c(=O)c2nc(NCCCO)ncc2n2c(=O)c3ccccc3[nH]c12 | inconclusive: 12.6 µM [quencher, partial curve] |
| O=C(NC1CCCCC1)c1ccc(N2CCOCC2)c([N+](=O)[O-])c1 | inconclusive: 25.1 µM [quencher, side channel, partial curve] |
| COC(=O)CCc1c(C)c(C(=O)c2cc(OC)c(OC)c(OC)c2)c2ccccn12 | inconclusive: 28.2 µM [quencher, side channel, single point] |
| Cc1ccc(CC(=O)c2ccc(Cl)cc2)cc1 | inconclusive: 25.1 µM [fluorescent, side channel, single point] |
| CS(=O)(=O)N1CCN(CCN2C(=O)c3cccc4cccc(c34)C2=O)CC1 | inconclusive: 1.78 µM [quencher, side channel, full curve, poor fit] |
| Cc1cc(N2C(=O)C(O)=C(C(=O)c3cccs3)C2c2cccc(O)c2)no1 (centres undefined) | inconclusive: 22.4 µM [quencher, side channel, partial curve] |
| O=[N+]([O-])c1ccc(NC(=S)N/C(=N/CS(=O)(=O)c2ccccc2)c2ccccc2)cc1 | inconclusive: 10 µM [quencher, partial curve] |
| COC(=O)C1CCN(CCCOc2ccc(CN3CCN(c4ccc([N+](=O)[O-])cc4)CC3)cc2)CC1 | inconclusive: 15.8 µM [quencher, side channel, partial curve] |
| CCOC(=O)CSc1nnc(-c2ccc([N+](=O)[O-])cc2)o1 | inconclusive: 14.1 µM [quencher, side channel, partial curve] |
| Cc1ccc(Nc2ccc(-n3ccnc3)nn2)cc1C | inconclusive: 25.1 µM [quencher, side channel, single point] |
| CCS(=O)(=O)Nc1cccc(-c2ccc3nnc(-c4cccnc4)n3n2)c1 | inconclusive: 5.01 µM [quencher, side channel, full curve] |
| N#C/C(=C\c1ccc(-c2cccc([N+](=O)[O-])c2)o1)C(=O)Nc1nc(-c2cccs2)cs1 | inactive |

| SMILES | Potency |
| --- | --- |
| COc1ccc(/C=C2\SC(N)=NC2=O)cc1Br | inconclusive: 17.8 µM [quencher, side channel, partial curve] |
| COc1ccc(N2CCN(CC(=O)NCc3ccccc3)CC2)cc1 | inactive |
| COc1ccc(Cn2c(=O)[nH]c3cc(C(=O)NCCCN4CCCC4=O)ccc3c2=O)cc1 | inconclusive: 35.5 µM [fluorescent, side channel, single point] |
| O=S(=O)(Nc1cc(Sc2cccc3cccnc23)c(O)c2ccccc12)c1ccc(F)cc1 | inconclusive: 39.8 µM [quencher, side channel, single point] |
| CCNC(=O)C1CC(=O)N(c2ccc(Br)cc2)C1 (centres undefined) | inactive |
| CCCCCn1c(=O)c2ccccc2n2c(=S)[nH]nc12 | inactive |
| O=C1C(Cl)=C(N2CCOCC2)C(=O)N1CCc1ccccc1 | inconclusive: 15.8 µM [quencher, side channel, partial curve] |
| COc1ccc(CNc2nc3ccccc3n2C)c(OC)c1 | inactive |
| O=C(CNC(=O)c1ccc(Br)o1)OCC(=O)c1cccc([N+](=O)[O-])c1 | inconclusive: 28.2 µM [quencher, side channel, partial curve] |
| CNS(=O)(=O)c1cccc2nsnc12 | inconclusive: 17.8 µM [quencher, side channel, partial curve] |
| O=C(CSc1cccc(C(F)(F)F)c1)NC(=O)c1ccccc1 | inconclusive: 0.1 µM [fluorescent, side channel, full curve] |
| COC(=O)c1[nH]c2cc(OC)c(OC)cc2c1/C=N/Nc1ccccc1 | inconclusive: 28.2 µM [quencher, side channel, single point] |
| COC(=O)C(CC(=O)c1ccc(Cl)cc1)c1ccc(C(C)C)cc1 (centres undefined) | inconclusive: 8.91 µM [quencher, side channel, partial curve] |
| CN1C(=O)/C(=C\C=C2/CCCN2C)N(C)C1=S | inconclusive: 17.8 µM [quencher, side channel, partial curve] |
| O=C(NC1CCC(O)CC1)c1ccc(-c2ccc([N+](=O)[O-])cc2)o1 (centres undefined) | inconclusive: 14.1 µM [quencher, side channel, partial curve] |
| CCOC(=O)c1c(NC(=O)C2c3ccccc3Oc3ccccc32)sc(C(=O)N(CC)CC)c1C | inactive |
| C=CCNC(=S)N/N=C/c1ccc(-c2ccc(OC)cc2)o1 | inconclusive: 20 µM [quencher, side channel, partial curve] |
| Cc1[nH]c(C)c(S(=O)(=O)N2CCN(c3cccc(C(F)(F)F)c3)CC2)c1C(=O)N1CCCC1 | inactive |
| COc1ccc([N+](=O)[O-])cc1NC(=O)CSc1nncn1-c1ccccc1 | inconclusive: 10 µM [quencher, partial curve, poor fit] |
| O=C(CN1C(=O)c2cccc3cccc1c23)NCC1CCCO1 (centres undefined) | inconclusive: 22.4 µM [quencher, side channel, single point] |

| SMILES | Potency |
| --- | --- |
| Cc1ccc(NC(=O)CCN2CCN(C/C=C/c3ccccc3)CC2)cc1C | inactive |
| CCOC(=O)c1cc(C(=O)OCC)c(=O)[nH]c1C | inconclusive: 0.316 µM [inhibitor, full curve, poor fit] |
| CCOC(=O)c1cnc2c([N+](=O)[O-])cnn2c1C | inconclusive: 25.1 µM [quencher, side channel, partial curve] |
| Cc1ccc(-c2cnn(-c3cccc([N+](=O)[O-])c3)c2N)cc1 | inconclusive: 2.24 µM [quencher, side channel, full curve] |
| COc1ccc(OCC(=O)Nc2ccc(N3CCOCC3)cc2)c([N+](=O)[O-])c1 | inconclusive: 5.01 µM [quencher, side channel, full curve, poor fit] |
| CCOC(=O)N1CCc2c(sc(N)c2C#N)C1 | inactive |
| Cc1cc(C)c2c(-n3cccc3)c(C(=O)NNS(=O)(=O)c3ccccc3)sc2n1 | inconclusive: 14.1 µM [quencher, side channel, partial curve] |
| COc1ccc(CC(=O)NNc2ncnc3c2cnn3-c2ccccc2)cc1 | inactive |
| O=C(CSc1ccc(/C=N/NC(=O)c2cccc(F)c2)o1)Nc1ccccc1 | inconclusive: 25.1 µM [quencher, single point] |
| O=C(Cc1ccccc1)N/N=C/c1ccc(OC(=O)/C=C\c2ccco2)cc1 | inactive |
| O=C(O)c1ccc2oc(=O)c(S(=O)(=O)c3ccc(F)cc3)cc2c1 | inconclusive: 15.8 µM [quencher, side channel, partial curve] |
| COc1ccc(S(=O)(=O)N2CCCCCC2)cc1C(=O)N1CCCCC1 | inconclusive: 2.82 µM [quencher, side channel, full curve, poor fit] |
| NC(=O)c1cnn2c(C(F)(F)F)cc(-c3ccc(F)cc3)nc12 | inconclusive: 25.1 µM [quencher, side channel, partial curve] |
| CCn1c(Cc2ccccc2)nnc1SCc1ccc([N+](=O)[O-])cc1 | inconclusive: 17.8 µM [quencher, side channel, partial curve] |
| COc1ccc(C(=O)C[n+]2cc(Br)cc3ccccc32)cc1[N+](=O)[O-] | inconclusive: 17.8 µM [quencher, side channel, partial curve] |
| Cc1cc(NS(=O)(=O)c2ccc(NC(=O)CSc3nc4sc(C)c(C)c4c(=O)[nH]3)cc2)no1 | inconclusive: 0.891 µM [inhibitor, full curve, poor fit] |
| COc1ccc(/C=C2\Oc3cc(OCC(=O)N4CC(O)C[C@H]4C(=O)O)ccc3C2=O)c(OC)c1OC (some centres undefined) | inconclusive: 14.1 µM [quencher, side channel, partial curve] |
| CCN(CC)c1ccc(/C=C(\C#N)C(N)=S)cc1 | inconclusive: 8.91 µM [quencher, side channel, partial curve] |
| N/C(=N\OC(=O)CCCc1ccccc1)c1cccc([N+](=O)[O-])c1 | inconclusive: 0.316 µM [quencher, side channel, full curve, poor fit] |
